Measurements taken from PubChem BioAssay AID686979 (National Center for Advancing Translational Sciences (NCATS), 2013).
Out of some 420,000 compounds screened, about 50,000 (12%) were called active. Inconclusive results, whose numbers are uncertain, are shown with a selection of clear calls. The call rests on the fitted dose curve; in most records, active means well fitted inhibition curve with a large enough effect; inconclusive means small, poorly fitted or top-dose-only effect; inactive means flat fitted curve, though single readings scatter. Potencies of inconclusive entries are left out as doubtful fits.

Assay: qHTS for Inhibitors of human tyrosyl-DNA phosphodiesterase 1 (TDP1): qHTS in cells in presence of CPT; further: nearly all actives have a fitted effect of over 55% in size
Conditions: chicken DT40 Tdp1-/-;hTDP1 cells + 20 nM CPT, ATP luminescence, 48 h; activity change, negative = growth inhibition: at 46.2 µM (top of the series)
Summary of the method: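 Chicken DT40 Tdp1-/- cells stably complemented with human TDP1 were seeded at 400 cells/well in medium containing 20 nM camptothecin, exposed to pin-transferred compounds, and grown at 37 °C for at least 48 hr. Viability was read as ATP luminescence.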
On the % scale 0 is the no-effect control and ±100 the full control effect; potency means the concentration at half of the fitted maximal effect; tags describe the fitted curve by direction and shape.

SMILES	Potency	activity change, negative = growth inhibition
CC(C)CC(N)c1csc(Nc2ccccn2)n1 (configuration not stated)	active: 14.6 µM	–
Cc1cc(C)c2c(C(C)(C)C)nn(-c3ccccc3)c2n1	inconclusive [inhibitor, single point]	–
Cc1ccc(-c2noc(CN3C(C)CCCC3C)n2)cc1 (configuration not stated)	inconclusive [inhibitor, single point]	–
COc1ccc(CCc2nnc(CCC(=O)N(C)Cc3ccnc4ccccc34)o2)cc1	inconclusive [inhibitor, single point]	–
CC(C)OC(=O)CSc1nnc(CNc2ccc(Cl)cc2)n1Cc1ccccc1	inconclusive [inhibitor, partial curve]	–
CN(C)S(=O)(=O)c1ccc(Cl)c(C(=O)NNC(=O)Cn2ccc(C(F)(F)F)n2)c1	–	inactive: 11.5%
CCCCCCc1cc2cc(C(=O)Nc3ccccc3OC)c(=O)oc2cc1O	active: 16.4 µM	–
CC(=O)c1cccc(NC(=O)CSc2nc(N3CCOCC3)nc(N3CCOCC3)n2)c1	inconclusive [inhibitor, partial curve]	–
Cc1cccc(NC(=S)NC2CCN(Cc3ccccc3)CC2)c1C	inconclusive [inhibitor, single point]	–
Cc1cccc(NC(=O)/C=C/c2ccc3c(c2)OCO3)n1	inconclusive [inhibitor, single point]	–
COc1ccccc1OCCCCCCN1CCOCC1	–	inactive: -11.5%
CCOC(=O)c1c(NC(=O)Cn2nnc(-c3ccc(Cl)cc3)n2)sc(C)c1C	–	inactive: -26%
CN1CCN(C2=NC(=O)/C(=C/c3cn[nH]c3-c3ccccc3)S2)CC1	inconclusive [inhibitor, single point]	–
CCC(Sc1nnc(-c2ccc(C)c(Cl)c2)n1CC)C(=O)Nc1nccs1 (configuration not stated)	active: 18.4 µM	–
COc1ccc(C(C(=O)NC(C)(C)C)N(CCC(C)C)C(=O)CCC(=O)Nc2cc(C)on2)cc1 (configuration not stated)	inconclusive [inhibitor, partial curve]	–
N#C/C(=C\c1ccc(Cl)cc1)c1nc2ccccc2[nH]1	–	inactive: -4.8%
CCN(CCC(=O)Nc1cc(OC)cc(OC)c1)Cc1ccccc1	inconclusive [inhibitor, single point]	–
COC(=O)c1cccc(NC(=O)CSc2nc3cccnc3n2C)c1	inconclusive [inhibitor, single point]	–
COc1cccc(NC(=S)N2CCc3cc(OC)c(OC)cc3C2)c1	–	inactive: 10.9%
Cc1cccc(NC(=O)CSc2nc3c([nH]c4ccccc43)c(=O)n2C)c1C	inconclusive [inhibitor, single point]	–
S=C1NC[C@H](CC2CCCCC2)N1CC1CCCCC1	active: 20.6 µM	–
COc1cccc(OCCNC(=O)c2ccccc2Sc2ccccc2C#N)c1	inconclusive [inhibitor, single point]	–
O=C1NC(c2cccc(OCc3ccccc3)c2)Nc2ccccc21 (configuration not stated)	active: 1.46 µM	–
CN(CC(=O)Nc1ccc(Cl)c(Cl)c1)C(=O)c1ccccc1SCC(=O)N1CCCC1	inconclusive [inhibitor, single point]	–

SMILES	Potency	activity change, negative = growth inhibition
CCN(CC)CCOc1nnc(-c2ccc(C)cc2)c2ccccc12	inconclusive [inhibitor, single point]	–
Cc1csc(=Nc2c(C)n(C)n(-c3ccccc3)c2=O)n1Cc1ccccc1	inactive	–
CCc1nc2c(cnn2-c2ccc(F)cc2)c(=O)n1-c1ccc(N2CCC(C)CC2)cc1	active: 16.4 µM	–
COc1ccc(C)cc1S(=O)(=O)N1CCN(S(=O)(=O)c2cc(C)ccc2OC)CC1	–	inactive: -13%
COc1ccc(-c2csc(C(O)c3ccccc3)n2)cc1 (configuration not stated)	inconclusive [inhibitor, single point]	–
O=C(NCCN1CCN(C(=O)c2cccc(Br)c2)CC1)C(=O)Nc1ccc(Br)cc1	active: 13 µM	–
COc1ccccc1C(CNC(=O)c1cc(S(=O)(=O)N2CCOCC2)ccc1C)N1CCCC1 (configuration not stated)	–	inactive: -0.537%
Fc1ccc(-c2nnc3sc(C4COc5ccccc5O4)nn23)cc1 (configuration not stated)	inconclusive [inhibitor, single point]	–
Cc1csc(NC(=O)CSc2ccc(-c3ccccc3)nn2)n1	inconclusive [inhibitor, single point]	–
O=C1[C@@H](Oc2ccccc2)[C@@H](c2ccncc2)N1c1ccccc1	inconclusive [inhibitor, single point]	–
CCN1C(=O)c2ccccc2Sc2ccc(C(=O)NCCCN3CCCCC3)cc21	–	inactive: -27%
CC1CCN(C(=O)CC(NC(N)=O)c2ccccc2Cl)CC1 (configuration not stated)	–	inactive: -12.3%
CC(=O)Oc1ccc(C(=O)Nc2cc(NC(=O)c3ccc(OC(C)=O)cc3)cc(C(=O)NC(C)(C)C)c2)cc1	active: 20.6 µM	–
CC(=O)c1c(C)n(-c2ccccc2Br)c2ccc(O)cc12	inconclusive [inhibitor, single point]	–
CC(NC(=O)Nc1ccccc1C(F)(F)F)c1c(-n2cccc2)sc2c1CCCC2 (configuration not stated)	inconclusive [inhibitor, single point]	–
O=C(NCc1cccnc1)c1cccn1-c1ncc(C(F)(F)F)cc1Cl	inconclusive [inhibitor, partial curve, poor fit]	–
Cn1c(CNS(=O)(=O)c2ccc(Br)cc2)n[nH]c1=S	–	inactive: -14%
Cc1ccc(CCNC(=O)CN2C(=O)COc3ccc(S(=O)(=O)N4CCOCC4)cc32)cc1	–	inactive: -28.4%
CC(=O)Nc1ccc(S(=O)(=O)N[C@@H](C)C(=O)N2CCN(C/C=C/c3ccccc3)CC2)cc1	–	inactive: -13%
C=CCN(CC=C)C(=S)Nc1ccccc1	–	inactive: -24.8%
CC(=O)c1c(C)[nH]c(C(=O)OCc2c(F)cccc2Cl)c1C	inconclusive [inhibitor, single point]	–
COc1ccc(N/N=C(/C(C)=O)N2CCCc3ccccc32)cc1	inconclusive [inhibitor, single point]	–
Nc1c(C(=O)N/N=C/c2ccccc2)cnn1-c1ccccc1	inconclusive [inhibitor, single point]	–
